This assay relates to TYKNU. The assay is described as follows: fractional viability relative to vehicle; TYKNU is a high-grade serous ovarian cancer line; higher = less growth inhibition. The note with it: 72 h, genotype: OPA1 knockout (sgOPA1 #2). In outline:
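TYKNU control cells or lentiCRISPRv2 knockout derivatives were seeded at 500 cells per well into drug-stamped 384-well plates holding a ~2100-compound library at 2 or 10 μM, in duplicate. Cells were grown at 37 °C in 5% CO2 in RPMI 1640 with 10% FBS, and drug treatment lasted 72 h. Viability was read by Cell Titer Glo luminescence. Duplicate treatment wells were averaged and normalised to duplicate control wells from the same plate position.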

Structures can show the parent of a compound that is named as a salt. The full ranking holds about 2,000 compounds; the median of “fractional viability relative to vehicle” is about 0.92, and the lowest 2% start at about 0.11. Some of the results follow.

Regarding `Cn1cc(/C=C2\C(=O)Nc3cccnc32)c2ccccc21`, the fractional viability is, setting by setting: (2uM) 1.21; (10uM) 1.14.

As for `CNC(=O)c1ccc(Nc2ncc(C(F)(F)F)c(NCc3nccnc3N(C)S(C)(=O)=O)n2)cc1`, the fractional viability runs as follows: (2uM) 0.707; (10uM) 0.591.

With `Cc1ccc(NC(=O)C2(c3ccc4c(c3)OC(F)(F)O4)CC2)nc1-c1cccc(C(=O)O)c1` [VX-809 (Lumacaftor)], the fractional viability reads like this: (2uM) 0.996; (10uM) 1.03.

On to `OCCOc1ccc(/C(=C(/CCCl)c2ccccc2)c2ccccc2)cc1` [Ospemifene], for which the fractional viability (2uM) came to 0.854 and the fractional viability (10uM) amounted to 0.735.

With `CC(C)OC(=O)C(C)(C)Oc1ccc(C(=O)c2ccc(Cl)cc2)cc1` [Fenofibrate], the fractional viability was determined as 1.16 (2uM) and 1.14 (10uM).

For `O=S(=O)(O)Oc1ccc(C(c2ccc(OS(=O)(=O)O)cc2)c2ccccn2)cc1` [Sodium Picosulfate], the fractional viability (2uM) was found to be 0.966 and the fractional viability (10uM) was 0.856.

Turning to `CCn1c(-c2nonc2N)nc2c(C#CC(C)(C)O)ncc(OC[C@H]3CCCNC3)c21`, the fractional viability by setting is: (2uM) 1.01; (10uM) 0.698.

As for `Cc1cc2c(s1)Nc1ccccc1N=C2N1CCN(C)CC1` [Olanzapine], the fractional viability is, setting by setting: (2uM) 1.07; (10uM) 0.807.

Turning to `CN1C(=O)C(Cc2c[nH]c3ccccc23)NC1=S` (stereo not drawn) [Necrostatin-1], the fractional viability is, setting by setting: (2uM) 0.807; (10uM) 0.811.

As to `CCC[C@H](N[C@H]1CCc2cc(F)cc(F)c2C1)C(=O)Nc1cn(C(C)(C)CNCC(C)(C)C)cn1`, the fractional viability reads like this: (2uM) 0.786; (10uM) 0.87.

With `Cc1cnc(-c2ccccc2C(C)C)nc1NCc1ccc(-n2ccnn2)cc1`, the fractional viability came to 0.996 (2uM) and 0.759 (10uM).

In the case of `Nc1ccc(-c2ccc3ncc4ccc(=O)n(-c5cccc(C(F)(F)F)c5)c4c3c2)cn1` [Torin 2], the fractional viability (2uM) turned out to be 0.36 and the fractional viability (10uM) is 0.363.

For the compound `CSc1nc2cc(Cl)c(Oc3cccc(Cl)c3Cl)cc2[nH]1` [Triclabendazole], the fractional viability (2uM) was 1.05 and the fractional viability (10uM) is 0.871.

For `CCCCCCCCCCCCCCCCn1cc[n+](Cc2ccccc2)c1C`, the fractional viability runs as follows: (2uM) 0.363; (10uM) 0.0434.

Take `Cn1cnc2c(F)c(Nc3ccc(Br)cc3F)c(C(=O)NOCCO)cc21`: the fractional viability was 0.631 (2uM) and 0.428 (10uM).

As to `C#Cc1cccc(Nc2ncnc3cc(OCCOC)c(OCCO)cc23)c1`, the fractional viability came to 1.13 (2uM) and 0.833 (10uM).

Turning to `COc1cc2nc(N3CCCC3)nc(NCCCCCN3CCCC3)c2cc1OC`, the fractional viability is, setting by setting: (2uM) 0.679; (10uM) 0.0949.

Consider `NC(=O)c1cnccn1` [Pyrazinamide], for which the fractional viability is, setting by setting: (2uM) 1.05; (10uM) 1.03.

`Nc1nc(N)c(N=O)c(OCC2CCCCC2)n1`: the fractional viability runs as follows: (2uM) 0.974; (10uM) 0.663.

On to `CC(C)C[C@H](NC(=O)[C@H](Cc1ccccc1)C[C@@H](O)[C@H](Cc1ccccc1)NC(=O)OC(C)(C)C)C(=O)N[C@@H](Cc1ccccc1)C(N)=O`, for which the fractional viability was 0.74 (2uM) and 0.782 (10uM).

On to `CC(=O)O[C@H]1C(=O)[C@@]2(C)[C@H]([C@H](OC(=O)c3ccccc3)[C@]3(O)C[C@H](OC(=O)[C@H](O)[C@@H](NC(=O)c4ccccc4)c4ccccc4)C(C)=C1C3(C)C)[C@]1(OC(C)=O)CO[C@@H]1C[C@@H]2O` [Paclitaxel], for which the fractional viability is, setting by setting: (2uM) 0.717; (10uM) 0.773.

Turning to `NC(=O)c1cccc(-c2cccc(OC(=O)NC3CCCCC3)c2)c1`, the fractional viability runs as follows: (2uM) 0.981; (10uM) 0.995.

In turn, `CN1CCC(Nc2nc(Nc3ccc(Oc4ccccc4)cc3)c3c(=O)[nH]cc(Br)c3n2)CC1` registered a fractional viability (2uM) of 0.289 and a fractional viability (10uM) of 0.0528.

For the compound `CCCN(CCC)CCc1cccc2c1CC(=O)N2` [Ropinirole HCl], the fractional viability is 1.04 (2uM) and 1.07 (10uM).

For the compound `COc1ccc2cc([C@H](C)C(=O)O)ccc2c1` [Naproxen], the fractional viability (2uM) is 1.11 and the fractional viability (10uM) was 0.908.

With `N#Cc1cc(CN2CCC(Nc3ncnc4sc(Cl)cc34)CC2)ccc1F`, the fractional viability turned out to be 0.83 (2uM) and 0.84 (10uM).

As for `C[C@]12CCC(=O)C=C1[C@@H]1C[C@@H]1[C@H]1[C@@H]3[C@@H]4C[C@@H]4[C@@]4(CCC(=O)O4)[C@@]3(C)CC[C@@H]12` [Drospirenone], the fractional viability by setting is: (2uM) 1.1; (10uM) 1.05.

For `OCCn1cc(-c2cnc3nnn(Cc4ccc5ncccc5c4)c3n2)cn1`, the fractional viability was 1.09 (2uM) and 1.14 (10uM).

As for `Cc1ncc([N+](=O)[O-])n1CC(C)O` (stereo not drawn) [Secnidazole], the fractional viability (2uM) came to 1.26 and the fractional viability (10uM) was 1.26.

Take `Cc1ccc(C(=O)Nc2ccc(CN3CCN(C)CC3)c(C(F)(F)F)c2)cc1C#Cc1cnc2[nH]ncc2c1`: the fractional viability by setting is: (2uM) 0.589; (10uM) 0.115.

With `Oc1ccc(-c2nc(-c3ccc(F)cc3)c(-c3ccncc3)[nH]2)cc1`, the fractional viability reads like this: (2uM) 1.48; (10uM) 1.09.

The compound `O=C(Nc1ccc(S(=O)(=O)Nc2ccccc2Cl)c(Cl)c1)c1ccccn1` showed a fractional viability (2uM) of 0.907 and a fractional viability (10uM) of 0.714.

As to `O=C(NC[C@H](O)CO)c1ccncc1Nc1ccc(I)cc1F`, the fractional viability amounted to 0.542 (2uM) and 0.514 (10uM).

Turning to `Cc1ccc(-n2nc(C(C)(C)C)cc2NC(=O)NCc2cc(F)ccc2Oc2ccc3c(cnn3CCO)c2)cc1` [Pexmetinib (ARRY-614)], the fractional viability by setting is: (2uM) 0.722; (10uM) 0.759.

The values above are taken from the supplement of paper PMC5919970.
